Measurements published in patent US11186558B2, “Synthetic methods” (GLAXOSMITHKLINE INTELLECTUAL PROPERTY (NO. 2) LIMITED, priority 2016, dated 2021).

What was measured:
T2D subjects [1] = assay: Study 200185: 7-day treatment added to metformin in T2D subjects; assay type: in vivo, human; details: 7 days
T2D subjects [2] = assay: Study 201351: 14-day dose-ranging study added to metformin in T2D subjects; assay type: in vivo, human
Protocol: For T2D subjects who completed the 14-day treatment period with GSK2330672 added to metformin in Study 201351, repeated doses of GSK2330672 from 10 mg to 90 mg BID reduced circulating prandial glucose concentrations at all doses compared to placebo and sitagliptin over 14 hours post-dose. The circulating concentrations of serum C4 were increased over 14 hours post-dose by GSK2330672 at all doses compared to placebo and sitagliptin; while C4 concentrations for the 10 mg, 20 mg, 30 mg and 60 mg of GSK2330672 groups appear to have reached a plateau by Day 7, this was not the case for the 90 mg group in which the Day 14 values were greater than those at Day 7.
Reductions in fasting plasma glucose were greater in GSK2330672 30 mg, 60 mg, and 90 mg groups on Day 7 and Day 14 compared to placebo and sitagliptin groups.

[3] = system: healthy subjects, T2D subjects, PBC pruritus subjects
[4] = system: patients with primary biliary cholangitis (PBC) and symptoms of pruritus; assay: Phase 2 double-blind, placebo controlled, crossover trial in PBC patients with pruritus (Study 117213); assay type: in vivo, human
Protocol: A clinical study was carried out to investigate the safety, tolerability, and effect of repeat doses of GSK672 administration in patients with primary biliary cholangitis (PBC) and symptoms of pruritus. The results of this study have been summarized and published on clintrials.gov
A phase 2 double-blind, randomised, placebo controlled, crossover trial in PBC patients with pruritus was conducted at two specialist PBC centres in the United Kingdom between March 2014 and November 2015. Subjects received oral GSK672 (45 to 90 mg) and placebo twice daily for 14 days in a crossover sequence.
The primary end point was safety [measured by clinical and laboratory assessments and adverse events (AEs)] and tolerability. Secondary end points were: i) changes in pruritus scores from baseline measured using a 0 to 10 numerical rating scale (NRS) completed twice daily and PBC-40 itch domain scores and 5-D itch scale and ii) changes in serum levels of total bile acids (TBA) and 7alpha-hydroxy-4-cholesten-3-one (C4). Serum levels of individual BA species, autotaxin (ATX) activity and FGF19 were measured at baseline and at the end of each treatment period.
Reduction of pruritus severity occurred within the first week of GSK2330672, continued to decrease through 2 weeks of treatment and returned towards baseline upon blinded switch to placebo. Decreases in fatigue, sleep disturbance and overall disability were also noted upon GSK2330672 administration compared to placebo. […] GSK2330672 was minimally absorbed as evidenced by detection in isolated samples in a small portion of subjects (8 out of 21). […] Parent compound (GSK2330672) was the only drug related material observed in the urine, and the concentration was low and not observed in all subjects. […] Of note, plasma concentrations of TUDCA and GUDCA were still at levels associated with clinical efficacy in published studies of UDCA therapy for PBC. Dilger K, Hohenester S, Winkler Budenhofer U, Bastiaansen B, Schapp F, Rust C, Beuers U. Effect of ursodeoxycholic acid on bile acid profiles and intestinal detoxification machinery in primary biliary cirrhosis and health. Journal of Hepatology. 2012; 57:133-40.

[5] = Plasma drug concentrations after administration of GSK2330672; assay type: in vivo, human
Protocol: Because the pharmacological target of GSK2330672 is located on the brush border of enterocytes in the intestinal lumen, the molecule was designed to have low permeability and high polar surface area to limit absorption into the portal or systemic circulation. Blood samples were obtained at frequent intervals after administration of GSK2330672 for assays of plasma drug concentrations. The majority of measurements were below the lower limit of quantification for the assay (LLQ=1 ng/mL). The highest measurable concentration was 5.33 ng/ml obtained 2 hours post-dose in 1 subject, confirming limited absorption into the systemic circulation.

[6] = target: T1, ileal bile acid transporter (Homo sapiens, UniProt Q12908); assay: Single and repeated oral doses in healthy subjects (bile acid pharmacodynamics); assay type: in vivo
T1 construct: the pharmacological target of GSK2330672 is located on the brush border of enterocytes in the intestinal lumen; from tissue; host or cells: intestinal enterocytes (brush border) of human subjects, in vivo
T1 sequence (Q12908 1-348): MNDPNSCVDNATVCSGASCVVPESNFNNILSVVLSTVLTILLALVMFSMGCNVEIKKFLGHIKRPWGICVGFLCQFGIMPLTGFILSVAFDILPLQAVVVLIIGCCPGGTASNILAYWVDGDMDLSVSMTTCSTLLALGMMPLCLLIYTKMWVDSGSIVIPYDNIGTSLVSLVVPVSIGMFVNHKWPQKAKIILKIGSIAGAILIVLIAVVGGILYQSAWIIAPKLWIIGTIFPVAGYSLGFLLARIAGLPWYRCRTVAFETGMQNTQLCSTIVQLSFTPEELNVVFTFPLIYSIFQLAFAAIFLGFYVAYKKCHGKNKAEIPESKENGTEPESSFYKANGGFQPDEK
Source text: Repeated doses suppressed both fasting and post-prandial bile acid concentrations measured on Day 1 and Day 10 of dosing. The anticipated adaptive response to inhibited bile acid reabsorption, upregulation of hepatic bile acid synthesis, was estimated by measuring serum concentrations of 7-alpha-hydroxy-4-cholesten-3-one (C4). With repeated doses of GSK2330672, serum C4 concentrations increased up to 10-fold after ten days of dosing.

[7] = 45 increased on Day 3 to 90 mg BID, with metformin

With `CCCC[C@]1(CC)CS(=O)(=O)c2cc(CNC(CC(=O)O)CC(=O)O)c(OC)cc2[C@@H](c2ccccc2)N1` [GSK2330672] the C4 concentrations (T2D subjects [1]; [7]) was “increased”, the “serum total bile acid concentrations” value (T2D subjects [1]; [7]) was “significantly decreased” and the “mean reduction in fasting LDL-C from baseline” value (T2D subjects [1]; placebo 3.5% mean increase) was 41.7%. The Fasting serum triglycerides (T2D subjects [1]; placebo −16.0%) was “relatively stable”, the “circulating prandial glucose concentrations compared to placebo and sitagliptin” value (T2D subjects [2]; 10 mg to 90 mg BID, all doses, over 14 hours post-dose) was “reduced” and the “reductions in fasting plasma glucose compared to placebo and sitagliptin groups” value (T2D subjects [2]; 30 mg, 60 mg and 90 mg groups, Day 7 and Day 14) was “greater”. The “fasting serum apoB/cholesterol, LS mean change from baseline (expressed as a ratio) difference from placebo (95% CI)” value (T2D subjects [2]; 60 mg group, greatest mean reduction) was 0.74 (0.66, 0.82), the “fasting plasma insulin, LS mean difference from placebo” value (T2D subjects [2]; 90 mg group, Day 14, 95% CI [−33.73, −1.48]) was -17.61 pmol/L and the triglyceride concentrations (T2D subjects [2]; all dose groups) was “trend for an increase”. The “circulating concentrations of serum C4 compared to placebo and sitagliptin” value (T2D subjects [2]; all doses, over 14 hours post-dose) was “increased”, the HDL cholesterol (T2D subjects [2]; any dose group) was “no clinically meaningful changes” and the deaths or pregnancies ([3]; any study) was “No deaths or pregnancies were reported”. For the same molecule, the “most commonly reported adverse events” value ([3]; gastrointestinal symptoms) was “diarrhea, abdominal pain and bowel movement irregularity”, the “vital signs, ECG, spirometry, clinical laboratory findings” value ([3]; healthy subjects, T2D patients, PBC pruritus patients) was “no clinically significant patterns” and the “reduction in itch intensity as measured by NRS” value ([4]; 0 to 10 numerical rating scale, 95% CI) was −1.58 (95% Cl: −2.48 to −0.68). The “effect on absorption of ursodeoxycholic acid (UDCA)” value ([4]; 90 mg BD) was “did not inhibit”, the “pruritus severity compared to placebo” value ([4]; 90 mg BD, 3 rating scales (10 point NRS, 5D Itch Scale, PBC-40)) was “statistically significant decrease” and the “decrease in concentration of serum total bile acids” value ([4]; 90 mg BD, 14 day) was “approximately 50%”. The “increase in serum C-4” value ([4]; 90 mg BD, 14 day) was 3 fold, the “subjects with detection of GSK2330672 in isolated samples” value ([4]; 90 mg BD, minimally absorbed) was 8 out of 21 and the “reduction in itch intensity, 5-D itch” value ([4]; 95% CI) was −4.55 (95% Cl: −6.60 to −2.49). The “reduction in itch intensity, PBC-40 itch domain” value ([4]; 95% CI) was −0.59 (95% Cl: −0.94 to −0.24), the “Diarrhoea AE frequency” value ([4]; GSK672 period (placebo 5%)) was 33% and the “headache AE frequency” value ([4]; GSK672 period (placebo 33%)) was 29%. For the same molecule, the “Frequency of any AE” value ([4]; GSK672 period, 17/21, 45 to 90 mg twice daily 14 days) was 81%, the “serum TBA levels after GSK672 treatment” value ([4]; baseline 48.64±68.77 μM, p=0.15) was 25.15 ± 23.85 µM and the response rate ([4]; itch, 45 to 90 mg twice daily 14 days) was 71%. The “serious AEs” value ([4]; oral 45 to 90 mg twice daily for 14 days, 21 PBC patients) was “No serious AEs were reported”, the tolerability ([4]; two weeks of oral twice daily dosing) was “well tolerated” and the “serum levels of deoxycholate following GSK672” value ([4]; vs. 3.1±0.55, p=0.009) was 3.39 ± 0.64 µM. For the same molecule, the “serum levels of taurocholate after GSK672” value ([4]; vs. 3.47±7.15 μM, p=0.0004) was 0.31 ± 0.74 µM, the “serum levels of taurochenodeoxycholate after GSK672” value ([4]; vs. 3.68±7.50 μM, p=0.002) was 0.8 ± 1.46 µM and the “serum levels of glycocholate after GSK672” value ([4]; vs. 4.44±7.43 μM, p=0.0013) was 0.9 ± 1.21 µM. The “serum ATX activity following GSK672” value ([4]; vs. 8.25±4.17, p=0.006) was 6.95 ± 2.62 nmol/mL/min, the “serum levels of C4 following GSK672” value ([4]; vs. 13.13±10.04, p=0.0006) was 35.2 ± 25.32 ng/mL and the “serum FGF19 levels following GSK672” value ([4]; vs. 162.9±107.5, p<0.0001) was 50.66 ± 47.31 pg/mL. The “plasma drug concentration, majority of measurements” value ([5]; below lower limit of quantification (LLQ=1 ng/mL)) was < 1 ng/mL, the concentration at 2 hours ([5]; human, plasma, oral, 2 hours post-dose in 1 subject, read-out: highest measurable plasma concentration) was 5.33 ng/mL and the “fecal bile acid excretion over the subsequent 48 hours” value ([6]; healthy subjects, single doses) was “significantly increased”. The “fasting and post-prandial bile acid concentrations” value ([6]; repeated doses, Day 1 and Day 10) was “suppressed” and the “increase in serum C4 concentrations” value ([6]; repeated doses, after ten days of dosing) was “up to 10 fold”.
